# Results published in publication PMC12820563.
# The other results are listed elsewhere or left out. The list includes weakly bound sequences.
# Molecular target: T1, MBP-FoxP3dN (UniProt Q99JB6)
# T1 sequence: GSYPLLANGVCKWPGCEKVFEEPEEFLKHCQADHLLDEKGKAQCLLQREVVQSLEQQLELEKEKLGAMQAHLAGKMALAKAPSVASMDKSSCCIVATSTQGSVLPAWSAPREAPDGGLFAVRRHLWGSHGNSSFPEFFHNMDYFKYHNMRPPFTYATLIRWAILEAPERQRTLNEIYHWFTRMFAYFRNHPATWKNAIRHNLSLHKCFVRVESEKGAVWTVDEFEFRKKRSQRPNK
# Test: PD-seq (MBP pull-down with sequencing)
# Details: 20 mM Tris-HCl pH 7.5, 100 mM NaCl, 1.5 mM MgCl2, 0.4 uM protein, 0.1 uM dsDNA library, 30 min, room temperature, amylose pull-down; high values mean tight binding; double strand, one strand shown
row,Sequence,binding signal (RPM ratio (pull-down/input))
1,GATGATTGTTCTCCCAGCTGATGAATTGATCGTGTCGAGTAAACAAATTTTCCTAATCTTTCTGTTCAAGCGCCATCTAC,0.703
2,GATGATTGTTCTCCCAGCTGATGAATTCACACAGTCGAGTAAACAAATTTTCCTAATCTTTCTGTTCAAGCGCCATCTAC,0.304
3,GATGATTGTTCTCCCAGCTGATGAATTAGTATTATCGAGTAAACAAATTTTCCTAATCTTTCTGTTCAAGCGCCATCTAC,2.21
4,GATGATTGTTCTCCCAGCTGATGAATTCCTCTGGTCGAGTAAACAAATTTTCCTAATCTTTCTGTTCAAGCGCCATCTAC,0.195
5,GATGATTGTTCTCCCAGCTGATGAATTAATGCCATCGAGTAAACAAATTTTCCTAATCTTTCTGTTCAAGCGCCATCTAC,3.34
6,GATGATTGTTCTCCCAGCTGATGAATTATAAGGTTCGAGTAAACAAATTTTCCTAATCTTTCTGTTCAAGCGCCATCTAC,0.325
7,GATGATTGTTCTCCCAGCTGATGAATTGAATGCCTCGAGTAAACAAATTTTCCTAATCTTTCTGTTCAAGCGCCATCTAC,1.13
8,GATGATTGTTCTCCCAGCTGATGAATTACTCCCGTCGAGTAAACAAATTTTCCTAATCTTTCTGTTCAAGCGCCATCTAC,0.241
9,GATGATTGTTCTCCCAGCTGATGAATTGAGTTGCTCGAGTAAACAAATTTTCCTAATCTTTCTGTTCAAGCGCCATCTAC,1.28
10,GATGATTGTTCTCCCAGCTGATGAATTTCGGGAGTCGAGTAAACAAATTTTCCTAATCTTTCTGTTCAAGCGCCATCTAC,0.232
11,GATGATTGTTCTCCCAGCTGATGAATTCGTCTGCTCGAGTAAACAAATTTTCCTAATCTTTCTGTTCAAGCGCCATCTAC,0.519
12,GATGATTGTTCTCCCAGCTGATGAATTGAGTGCTTCGAGTAAACAAATTTTCCTAATCTTTCTGTTCAAGCGCCATCTAC,0.713
13,GATGATTGTTCTCCCAGCTGATGAATTTCTAGAGTCGAGTAAACAAATTTTCCTAATCTTTCTGTTCAAGCGCCATCTAC,0.185
14,GATGATTGTTCTCCCAGCTGATGAATTATGATCTTCGAGTAAACAAATTTTCCTAATCTTTCTGTTCAAGCGCCATCTAC,0.626
15,GATGATTGTTCTCCCAGCTGATGAATTGAATTGTTCGAGTAAACAAATTTTCCTAATCTTTCTGTTCAAGCGCCATCTAC,2.02
16,GATGATTGTTCTCCCAGCTGATGAATTCATACTGTCGAGTAAACAAATTTTCCTAATCTTTCTGTTCAAGCGCCATCTAC,0.429
17,GATGATTGTTCTCCCAGCTGATGAATTCTACTACTCGAGTAAACAAATTTTCCTAATCTTTCTGTTCAAGCGCCATCTAC,0.369
18,GATGATTGTTCTCCCAGCTGATGAATTAGTGTTCTCGAGTAAACAAATTTTCCTAATCTTTCTGTTCAAGCGCCATCTAC,3.2
19,GATGATTGTTCTCCCAGCTGATGAATTATCGAGATCGAGTAAACAAATTTTCCTAATCTTTCTGTTCAAGCGCCATCTAC,0.249
20,GATGATTGTTCTCCCAGCTGATGAATTGAGGCACTCGAGTAAACAAATTTTCCTAATCTTTCTGTTCAAGCGCCATCTAC,1.23
21,GATGATTGTTCTCCCAGCTGATGAATTTCATCCGTCGAGTAAACAAATTTTCCTAATCTTTCTGTTCAAGCGCCATCTAC,0.371

row,Sequence,binding signal (RPM ratio (pull-down/input))
1,GATGATTGTTCTCCCAGCTGATGAATTTCTTCTATCGAGTAAACAAATTTTCCTAATCTTTCTGTTCAAGCGCCATCTAC,0.265
2,GATGATTGTTCTCCCAGCTGATGAATTAAGGTTCTCGAGTAAACAAATTTTCCTAATCTTTCTGTTCAAGCGCCATCTAC,0.672
3,GATGATTGTTCTCCCAGCTGATGAATTACTGTTATCGAGTAAACAAATTTTCCTAATCTTTCTGTTCAAGCGCCATCTAC,1.08
4,GATGATTGTTCTCCCAGCTGATGAATTAAATGTTTCGAGTAAACAAATTTTCCTAATCTTTCTGTTCAAGCGCCATCTAC,1.12
5,GATGATTGTTCTCCCAGCTGATGAATTACAGGCTTCGAGTAAACAAATTTTCCTAATCTTTCTGTTCAAGCGCCATCTAC,0.604
6,GATGATTGTTCTCCCAGCTGATGAATTGGCACGGTCGAGTAAACAAATTTTCCTAATCTTTCTGTTCAAGCGCCATCTAC,0.277
7,GATGATTGTTCTCCCAGCTGATGAATTCTCATGATCGAGTAAACAAATTTTCCTAATCTTTCTGTTCAAGCGCCATCTAC,0.31
8,GATGATTGTTCTCCCAGCTGATGAATTGTATTCCTCGAGTAAACAAATTTTCCTAATCTTTCTGTTCAAGCGCCATCTAC,1.97
9,GATGATTGTTCTCCCAGCTGATGAATTAGCGGGCTCGAGTAAACAAATTTTCCTAATCTTTCTGTTCAAGCGCCATCTAC,0.313
10,GATGATTGTTCTCCCAGCTGATGAATTGAACCCGTCGAGTAAACAAATTTTCCTAATCTTTCTGTTCAAGCGCCATCTAC,0.226
11,GATGATTGTTCTCCCAGCTGATGAATTACATAAATCGAGTAAACAAATTTTCCTAATCTTTCTGTTCAAGCGCCATCTAC,0.499
12,GATGATTGTTCTCCCAGCTGATGAATTTTTCTTGTCGAGTAAACAAATTTTCCTAATCTTTCTGTTCAAGCGCCATCTAC,0.275
13,GATGATTGTTCTCCCAGCTGATGAATTCTGTTCATCGAGTAAACAAATTTTCCTAATCTTTCTGTTCAAGCGCCATCTAC,0.794
14,GATGATTGTTCTCCCAGCTGATGAATTCACTAAATCGAGTAAACAAATTTTCCTAATCTTTCTGTTCAAGCGCCATCTAC,0.211
15,GATGATTGTTCTCCCAGCTGATGAATTTAGTACTTCGAGTAAACAAATTTTCCTAATCTTTCTGTTCAAGCGCCATCTAC,0.745
16,GATGATTGTTCTCCCAGCTGATGAATTGGACGGGTCGAGTAAACAAATTTTCCTAATCTTTCTGTTCAAGCGCCATCTAC,0.186
17,GATGATTGTTCTCCCAGCTGATGAATTCTATGTATCGAGTAAACAAATTTTCCTAATCTTTCTGTTCAAGCGCCATCTAC,2.49
18,GATGATTGTTCTCCCAGCTGATGAATTAGACTGCTCGAGTAAACAAATTTTCCTAATCTTTCTGTTCAAGCGCCATCTAC,0.376
19,GATGATTGTTCTCCCAGCTGATGAATTAGTTACCTCGAGTAAACAAATTTTCCTAATCTTTCTGTTCAAGCGCCATCTAC,1.16
20,GATGATTGTTCTCCCAGCTGATGAATTAAGCCAGTCGAGTAAACAAATTTTCCTAATCTTTCTGTTCAAGCGCCATCTAC,1.37
21,GATGATTGTTCTCCCAGCTGATGAATTTAGCCGATCGAGTAAACAAATTTTCCTAATCTTTCTGTTCAAGCGCCATCTAC,0.478

row,Sequence,binding signal (RPM ratio (pull-down/input))
1,GATGATTGTTCTCCCAGCTGATGAATTTGGTCGCTCGAGTAAACAAATTTTCCTAATCTTTCTGTTCAAGCGCCATCTAC,0.421
2,GATGATTGTTCTCCCAGCTGATGAATTGCAGGCCTCGAGTAAACAAATTTTCCTAATCTTTCTGTTCAAGCGCCATCTAC,0.825
3,GATGATTGTTCTCCCAGCTGATGAATTTAGTCTTTCGAGTAAACAAATTTTCCTAATCTTTCTGTTCAAGCGCCATCTAC,0.744
4,GATGATTGTTCTCCCAGCTGATGAATTCTTCGATTCGAGTAAACAAATTTTCCTAATCTTTCTGTTCAAGCGCCATCTAC,0.253
5,GATGATTGTTCTCCCAGCTGATGAATTGGAGCGATCGAGTAAACAAATTTTCCTAATCTTTCTGTTCAAGCGCCATCTAC,0.474
6,GATGATTGTTCTCCCAGCTGATGAATTGAATTAATCGAGTAAACAAATTTTCCTAATCTTTCTGTTCAAGCGCCATCTAC,0.295
7,GATGATTGTTCTCCCAGCTGATGAATTTTCCTGCTCGAGTAAACAAATTTTCCTAATCTTTCTGTTCAAGCGCCATCTAC,0.223
8,GATGATTGTTCTCCCAGCTGATGAATTGATTGATTCGAGTAAACAAATTTTCCTAATCTTTCTGTTCAAGCGCCATCTAC,1.74
9,GATGATTGTTCTCCCAGCTGATGAATTTGCGAGTTCGAGTAAACAAATTTTCCTAATCTTTCTGTTCAAGCGCCATCTAC,1.22
10,GATGATTGTTCTCCCAGCTGATGAATTGCTGCGGTCGAGTAAACAAATTTTCCTAATCTTTCTGTTCAAGCGCCATCTAC,0.598
11,GATGATTGTTCTCCCAGCTGATGAATTTCGCCAGTCGAGTAAACAAATTTTCCTAATCTTTCTGTTCAAGCGCCATCTAC,2.59
12,GATGATTGTTCTCCCAGCTGATGAATTTCCCGCTTCGAGTAAACAAATTTTCCTAATCTTTCTGTTCAAGCGCCATCTAC,0.261
13,GATGATTGTTCTCCCAGCTGATGAATTTCGTGTCTCGAGTAAACAAATTTTCCTAATCTTTCTGTTCAAGCGCCATCTAC,1.6
14,GATGATTGTTCTCCCAGCTGATGAATTGAACATTTCGAGTAAACAAATTTTCCTAATCTTTCTGTTCAAGCGCCATCTAC,0.388
15,GATGATTGTTCTCCCAGCTGATGAATTGAGAACGTCGAGTAAACAAATTTTCCTAATCTTTCTGTTCAAGCGCCATCTAC,0.267
16,GATGATTGTTCTCCCAGCTGATGAATTGGAAGCCTCGAGTAAACAAATTTTCCTAATCTTTCTGTTCAAGCGCCATCTAC,0.359
17,GATGATTGTTCTCCCAGCTGATGAATTTATACCATCGAGTAAACAAATTTTCCTAATCTTTCTGTTCAAGCGCCATCTAC,1.12
18,GATGATTGTTCTCCCAGCTGATGAATTGGGAACGTCGAGTAAACAAATTTTCCTAATCTTTCTGTTCAAGCGCCATCTAC,0.31
19,GATGATTGTTCTCCCAGCTGATGAATTCATGAATTCGAGTAAACAAATTTTCCTAATCTTTCTGTTCAAGCGCCATCTAC,0.676
20,GATGATTGTTCTCCCAGCTGATGAATTACATGGCTCGAGTAAACAAATTTTCCTAATCTTTCTGTTCAAGCGCCATCTAC,0.568
21,GATGATTGTTCTCCCAGCTGATGAATTCTCGCATTCGAGTAAACAAATTTTCCTAATCTTTCTGTTCAAGCGCCATCTAC,5.82
